The list shows a part of the results. Many values rest on one well or one pass, so single values are uncertain.
test system: IST-MEL1; test: cell count relative to DMSO control; melanoma cells; higher = more viable cells; details: library dose: standard library concentration; 72 h
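Also: cells treated in 1,536-well plates, then fixed and DAPI-stained, with nuclei counted from automated high-throughput microscope images.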

Row | SMILES | cell count
1 | CCCS(=O)(=O)Nc1ccc(F)c(C(=O)c2c[nH]c3ncc(Cl)cc23)c1F + CCN(CC)CCCCNc1ncc2cc(-c3cc(OC)cc(OC)c3)c(NC(=O)NC(C)(C)C)nc2n1 [PD173074] (first compound 0.4 µM, partner dose 0.5 µM) | 110%
2 | CN(c1ncccc1CNc1nc(Nc2ccc3c(c2)CC(=O)N3)ncc1C(F)(F)F)S(C)(=O)=O + Cn1c(Nc2ccc(C(F)(F)F)cc2)nc2cc(Oc3ccnc(-c4ncc(C(F)(F)F)[nH]4)c3)ccc21 [CHIR265] (first compound 0.4 µM, partner dose 0.4 µM) | 71.5%
3 | C=C(c1ccc(C(=O)O)cc1)c1cc2c(cc1C)C(C)(C)CCC2(C)C [Bexarotene] + CC(=O)c1c(C)c2cnc(Nc3ccc(N4CCNCC4)cn3)nc2n(C2CCCC2)c1=O [palbociclib] (first compound 10 µM, partner dose 0.2 µM) | 66.9%
4 | C=C(c1ccc(C(=O)O)cc1)c1cc2c(cc1C)C(C)(C)CCC2(C)C [Bexarotene] + Cc1nc(Nc2ncc(C(=O)Nc3c(C)cccc3Cl)s2)cc(N2CCN(CCO)CC2)n1 [dasatanib] (first compound 10 µM, partner dose 0.02 µM) | 68%
5 | CCCS(=O)(=O)Nc1ccc(F)c(C(=O)c2c[nH]c3ncc(Cl)cc23)c1F + NCC(=O)Nc1ccc(-n2nc(C(F)(F)F)cc2-c2ccc3c(ccc4ccccc43)c2)cc1 [OSU03012] (first compound 0.4 µM, partner dose 5 µM) | 67.7%
6 | NC1(c2ccc(-c3nc4ccn5c(=O)[nH]nc5c4cc3-c3ccccc3)cc2)CCC1 + OCCn1cc(-c2cnc3nnn(Cc4ccc5ncccc5c4)c3n2)cn1 [PF04217903] (first compound 2 µM, partner dose 5 µM) | 79.9%
7 | C=C(c1ccc(C(=O)O)cc1)c1cc2c(cc1C)C(C)(C)CCC2(C)C [Bexarotene] + C#Cc1cccc(Nc2ncnc3cc(OCCOC)c(OCCOC)cc23)c1 [erlotinib] (first compound 10 µM, partner dose 4 µM) | 91%
8 | CS(=O)(=O)c1ccc(C(=O)Nc2ccc(Cl)c(-c3ccccn3)c2)c(Cl)c1 [vismodegib] + CC(C)CCN1c2nc(Nc3cc(F)c(O)c(F)c3)ncc2N(C)C(=O)C1C [BID1870] (first compound 5 µM, partner dose 1 µM) | 86.3%
9 | NC1(c2ccc(-c3nc4ccn5c(=O)[nH]nc5c4cc3-c3ccccc3)cc2)CCC1 + COc1cc2c(Oc3ccc4[nH]c(C)cc4c3F)ncnc2cc1OCCCN1CCCC1 [cediranib] (first compound 2 µM, partner dose 2 µM) | 80.5%
10 | C=C(c1ccc(C(=O)O)cc1)c1cc2c(cc1C)C(C)(C)CCC2(C)C [Bexarotene] + COc1ccc2c(c1)CCC1C2CCC2(C)C(NCCCCCCN3C(=O)C=CC3=O)CCC12 [U73122] (first compound 10 µM, partner dose 2 µM) | 81.8%
11 | NC1(c2ccc(-c3nc4ccn5c(=O)[nH]nc5c4cc3-c3ccccc3)cc2)CCC1 + CS(=O)(=O)CCNCc1ccc(-c2ccc3ncnc(Nc4ccc(OCc5cccc(F)c5)c(Cl)c4)c3c2)o1 [lapatinib] (first compound 2 µM, partner dose 4 µM) | 66.6%
12 | CS(=O)(=O)c1ccc(C(=O)Nc2ccc(Cl)c(-c3ccccn3)c2)c(Cl)c1 [vismodegib] + COCC[n+]1c2c(n(Cc3cnccn3)c1C)C(=O)c1ccccc1C2=O [YM155] (first compound 5 µM, partner dose 0.002 µM) | 43.2%
13 | CCCS(=O)(=O)Nc1ccc(F)c(C(=O)c2c[nH]c3ncc(Cl)cc23)c1F + CC(=O)c1c(C)c2cnc(Nc3ccc(N4CCNCC4)cn3)nc2n(C2CCCC2)c1=O [palbociclib] (first compound 0.4 µM, partner dose 0.2 µM) | 63.3%
14 | C=C(c1ccc(C(=O)O)cc1)c1cc2c(cc1C)C(C)(C)CCC2(C)C [Bexarotene] + O=C(O)C(=O)Nc1sc2c(c1C(=O)O)CCNC2 [TCS401] (first compound 10 µM, partner dose 8.33333 µM) | 105%
15 | CCCS(=O)(=O)Nc1ccc(F)c(C(=O)c2c[nH]c3ncc(Cl)cc23)c1F + Nc1nc(F)nc2c1ncn2[C@@H]1O[C@H](CO)[C@@H](O)[C@@H]1O [fludarabine] (first compound 0.4 µM, partner dose 1 µM) | 76.6%
